# Assay results from PubChem BioAssay AID485294 (National Center for Advancing Translational Sciences (NCATS), 2010).
# Among all 370,000 compounds or so, about 150 (0.041%) were called active. Inconclusive means that the source gave no clear call. Such entries were picked first, then a sample of the others. Calls come from the whole dose curve; as a rule, active = well fitted inhibition curve with a large enough effect; inconclusive = small, poorly fitted or top-dose-only effect; inactive = flat fitted curve, though single readings scatter. No potency is given beside an inconclusive call; the fits are too rough.
# Target: Beta-lactamase (Escherichia coli (strain K12)) (UniProt P00811)
# Chain of UniProt P00811 (P00811 whole entry, looked up): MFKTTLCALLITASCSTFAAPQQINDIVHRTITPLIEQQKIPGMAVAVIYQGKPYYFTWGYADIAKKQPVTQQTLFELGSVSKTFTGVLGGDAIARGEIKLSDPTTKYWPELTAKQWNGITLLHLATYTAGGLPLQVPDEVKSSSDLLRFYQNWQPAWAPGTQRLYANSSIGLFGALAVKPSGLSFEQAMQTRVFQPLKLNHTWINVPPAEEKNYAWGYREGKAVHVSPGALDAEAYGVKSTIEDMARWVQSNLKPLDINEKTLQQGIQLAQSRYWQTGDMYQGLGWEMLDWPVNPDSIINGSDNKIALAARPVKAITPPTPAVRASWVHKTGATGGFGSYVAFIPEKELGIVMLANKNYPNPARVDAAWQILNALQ
# Experiment: qHTS Inhibitors of AmpC Beta-Lactamase (assay with detergent); note: nearly all actives have a fitted effect of over 25% in size
# Settings: AmpC hydrolysis of nitrocefin, absorbance 480 nm, 0.01% Triton; series mostly up to 114 µM
# Procedure, shortened: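 20 mM phosphate pH 7.0 + 0.01% (detergent screen) or 0.0001% Triton X-100; 5.3 nM AmpC reagent; cpd preinc 15 min RT; nitrocefin (800 uM stock) to start; A480 q20 s × 4 min; Activity was normalised to no-enzyme and no-compound control wells.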
# Potency is the fitted concentration of half-maximal effect; tags give direction and shape of the fitted curve.
row,Structure (SMILES),Potency
1,COc1ccc(OC)c(NC(=O)CSc2nnc(Cn3c(=O)sc4ccccc43)n2C)c1,"inconclusive [inhibitor, full curve, poor fit]"
2,O=C(Cn1c(=O)oc2cc(S(=O)(=O)N3CCCC3)ccc21)NC1CCCc2ccccc21 (stereo not drawn),"inconclusive [inhibitor, full curve, poor fit]"
3,COc1ccccc1NC(=O)CSc1nc2ncccc2[nH]1,"inconclusive [inhibitor, full curve, poor fit]"
4,CCn1cc(CN2CCCC(C(=O)Nc3ccc(-c4nc5ccccc5[nH]4)cc3)C2)c(C)n1 (stereo not drawn),inactive
5,COc1ccccc1N1CCN(Cc2c[nH]c3ccccc23)CC1,inactive
6,O=C(Nc1cc(Sc2nc3ccccc3s2)cc([N+](=O)[O-])c1)c1ccccc1F,inactive
7,CN(C)/C=C/C(=O)/C=C/c1ccc(Cl)cc1,inactive
8,Cc1cccc(C)c1NC(=O)CNC(=O)c1c(C)nn(-c2ccccc2)c1C,"inconclusive [inhibitor, partial curve, poor fit]"
9,Cc1cccc(-n2ncc(C(=O)NCc3ccccn3)c2C2CCN(C(=O)OC(C)(C)C)CC2)c1,inactive
10,Cc1ccc(NCc2ccc(C)s2)cc1,inactive
11,CCOC(=O)c1c(C)[nH]c(C(=O)OC/C(O)=C(\C#N)c2nc3ccccc3[nH]2)c1C,"inconclusive [inhibitor, full curve, poor fit]"
12,Cc1cccc(OCC(=O)N2CCN(Cc3ccncc3)CC2)c1,"inconclusive [inhibitor, single point]"
13,COc1ccc(C(CC(=O)O)NC(=O)c2ccco2)cc1OC (stereo not drawn),"inconclusive [inhibitor, full curve, poor fit]"
14,COc1ccc(NC(=O)COC(=O)CCOc2ccccc2C)cc1Cl,inactive
15,CC12CCC(C(=O)N(CSC(=S)N/N=C\c3ccccc3Cl)C1=O)C2(C)C (stereo not drawn),inactive
16,CCOP(=O)(OCC)c1nc(-c2ccc(C)cc2)oc1NCc1ccccc1,"inconclusive [inhibitor, single point]"
17,O=C(CSCc1ccccc1F)NCc1ccc(F)cc1,inactive
18,Cc1cc(N2C(=O)C(O)=C(C(=O)c3ccc(C)o3)C2c2cccs2)no1 (stereo not drawn),"inconclusive [inhibitor, partial curve]"
19,O=C(c1cccc(S(=O)(=O)N2CCCC2)c1)N1CCCC(C(F)(F)F)C1 (stereo not drawn),"inconclusive [inhibitor, full curve]"
20,O=c1[nH]c2cc3c(cc2cc1CN(Cc1ccco1)C(=S)NCC1CCCO1)OCCO3 (stereo not drawn),"inconclusive [inhibitor, full curve, poor fit]"
21,C/C(=N\NS(=O)(=O)c1ccc(C(C)(C)C)cc1)c1ccccc1,inactive
22,CC(=O)c1ccc(S(=O)(=O)N2CCC(c3nc4ccccc4[nH]3)CC2)cc1,"inconclusive [inhibitor, full curve]"

row,Structure (SMILES),Potency
1,CCOC(=O)c1c(NC(=O)CSc2nnc(-c3c[nH]c4ccccc34)n2CCOC)sc2c1CCCCC2,inactive
2,c1ccc2sc(-c3ccc4c(c3)OCO4)nc2c1,"inconclusive [inhibitor, full curve, poor fit]"
3,CCN(CC)CCn1c2c(c(SCC(=O)Nc3nc(C)cs3)nc1=O)CCC2,"inconclusive [inhibitor, full curve, poor fit]"
4,Cc1c(NC(=O)COC(=O)c2cc(-c3ccc(-c4ccccc4)cc3)nc3ccccc23)c(=O)n(-c2ccccc2)n1C,inactive
5,O=C(COC(=O)c1ccc(O)cc1)Nc1cccc(S(=O)(=O)NC2=NCCC2)c1,"inconclusive [inhibitor, partial curve, poor fit]"
6,Cc1cc(C)cc(NC(=S)NCCc2ccc(S(N)(=O)=O)cc2)c1,"inconclusive [inhibitor, partial curve, poor fit]"
7,CC(OC(=O)c1ccc(S(=O)(=O)N2CCCCC2)cc1)C(=O)NC1CCCCC1C (stereo not drawn),inactive
8,CCOC(=O)C1CCN(C(=O)Cn2cnc3sc(C)c(S(=O)(=O)N4CCCCC4)c3c2=O)CC1,"inconclusive [inhibitor, single point]"
9,Cc1ccc(S(=O)(=O)c2nc(-c3ccco3)oc2SCC(C)C)cc1,inactive
10,COc1ccc2nc3sc(C(=O)NCCCN4CCc5ccccc5C4)cc3cc2c1,"inconclusive [inhibitor, full curve, poor fit]"
11,CCn1c(SCC(=O)Nc2ccccc2F)nnc1-c1ccoc1C,inactive
12,CC1=C(C(N)=O)C(c2ccncc2)n2nc(-c3ccccc3Cl)nc2N1 (stereo not drawn),"inconclusive [inhibitor, full curve, poor fit]"
13,Cc1ccc2[nH]c(=O)c(CN(CC3CCCO3)S(=O)(=O)c3c(C)ccc4nsnc34)cc2c1 (stereo not drawn),"inconclusive [inhibitor, partial curve, poor fit]"
14,CC(C)(C)c1ccc(C(=O)Nc2cccc([N+](=O)[O-])c2)cc1,"inconclusive [inhibitor, full curve, poor fit]"
15,CCOC(=O)c1[nH]c2ccccc2c1NC(=S)Nc1ccccc1,inactive
16,Clc1ccc(C2Nc3ccccc3-n3cccc32)cc1 (stereo not drawn),"inconclusive [inhibitor, full curve, poor fit]"
17,CCOC(=O)CC(=O)NC(CC(=O)OC)c1ccc(Br)cc1 (stereo not drawn),"inconclusive [inhibitor, full curve, poor fit]"
18,COc1ccccc1NS(=O)(=O)c1cc([N+](=O)[O-])ccc1N/N=C/c1c(C)[nH]c2ccccc12,inactive
19,CCN(CC)S(=O)(=O)c1ccc(S(=O)(=O)Nc2ccc(C(=O)N3CCCC3)cc2)cc1,"inconclusive [inhibitor, full curve, poor fit]"
20,Clc1ccc2c(c1)CNc1c(ncnc1N1CCOCC1)O2,"inconclusive [inhibitor, partial curve, poor fit]"
21,Cc1cccc(NC(=O)c2ccc(N3CCCCC3)c([N+](=O)[O-])c2)n1,"inconclusive [inhibitor, single point]"
